# From paper PMC6212790
# This is one part of the list. At the low end of the ranking the order means little.
# Target: T1, GST-Rok (full length) (UniProt O34857)
# T1 sequence: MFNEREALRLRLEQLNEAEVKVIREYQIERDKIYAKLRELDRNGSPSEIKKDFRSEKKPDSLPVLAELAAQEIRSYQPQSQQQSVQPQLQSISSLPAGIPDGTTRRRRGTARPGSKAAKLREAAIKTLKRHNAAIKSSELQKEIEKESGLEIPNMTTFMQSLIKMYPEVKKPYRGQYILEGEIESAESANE
# Assay: protein binding microarray;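 note: rank score from −0.5 (least bound) to 0.5 (best bound)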
# Details: Rok is a gene silencer of Bacillus subtilis; high values mean tight binding; most listed sequences are background and not binding sites; double strand, one strand shown
row,Sequence,binding signal
1,CGAGCTAG,0.0183 E-score
2,CTCACTAC,0.0506 E-score
3,GCGATAGA,0.147 E-score
4,AACGTAGA,0.17 E-score
5,GGCCGTGA,-0.193 E-score
6,GGACGTAC,0.148 E-score
7,AGCGAGAT,-0.0459 E-score
8,CTTAACGC,-0.115 E-score
9,GCAGACTA,0.182 E-score
10,AACAAGAG,-0.0498 E-score
11,CAATGTTA,0.168 E-score
12,AACGACTA,-0.0589 E-score
13,CTATAGCA,0.248 E-score
14,GGCAGACA,0.189 E-score
15,ACAACACG,0.119 E-score
16,GCTTGGTA,-0.113 E-score
17,CTAAAGTC,-0.015 E-score
18,ACGAGTAA,0.032 E-score
19,GTGAGCCA,-0.191 E-score
20,CGGCGGAG,-0.273 E-score
21,TGGGAGAA,-0.0223 E-score
22,CGAATGTA,0.266 E-score
23,GGCAATCA,-0.201 E-score
24,AGGACAAA,-0.101 E-score
25,GTTCTGGA,0.103 E-score

row,Sequence,binding signal
1,CAATATCA,0.183 E-score
2,CGCAGACA,-0.162 E-score
3,TACCAATA,0.298 E-score
4,CGCCCCGC,-0.303 E-score
5,CGTGGCTA,-0.0463 E-score
6,ATCAGGCG,-0.0124 E-score
7,TAATAAGA,0.313 E-score
8,TACTGATA,0.21 E-score
9,GATCGGTA,0.191 E-score
10,GAAGAGCA,-0.0453 E-score
11,ATCGGTAG,0.112 E-score
12,CACCCGGA,-0.283 E-score
13,CGAAGTCG,-0.202 E-score
14,TATCCGAA,0.168 E-score
15,CACAGACA,-0.127 E-score
16,ATGTGCGC,0.0412 E-score
17,CCCAGCGC,-0.157 E-score
18,AACTCCGT,-0.0118 E-score
19,GAGTAGCC,-0.281 E-score
20,CCTGGCGA,-0.199 E-score
21,AATAACGT,0.171 E-score
22,ACTACATC,0.313 E-score
23,GTACAGCA,0.182 E-score
24,TCTGAACA,-0.114 E-score
25,GCAAAGCC,-0.258 E-score

row,Sequence,binding signal
1,AGCGTTTC,-0.165 E-score
2,CGGTAAGC,0.0366 E-score
3,GAAATGTC,0.126 E-score
4,CGGATAGA,0.159 E-score
5,AACGAAAA,-0.131 E-score
6,AGCACCAT,-0.194 E-score
7,CGAGGGGC,-0.323 E-score
8,CTCAAGTC,-0.0485 E-score
9,ACTACATG,0.318 E-score
10,ACAGCTTC,-0.106 E-score
11,CATAGTTA,0.244 E-score
12,GCGTTACA,-0.00982 E-score
13,ATAGATAG,0.34 E-score
14,ATAGTTGG,0.0271 E-score
15,ACAGCCTG,-0.158 E-score
16,ACAGCAAA,0.0227 E-score
17,ACTAGACT,-0.0178 E-score
18,ATAGAAGA,0.193 E-score
19,CCACGTGC,-0.341 E-score
20,GTAACAAC,0.184 E-score
21,AATCTGGA,-0.0405 E-score
22,CAGAAACC,-0.0891 E-score
23,TGGAGGAA,-0.24 E-score
24,CGGTTTTA,-0.0298 E-score
25,ACCACTGC,-0.117 E-score

row,Sequence,binding signal
1,CCACAGGC,-0.15 E-score
2,CTTGGAGA,-0.0489 E-score
3,AGTAAGTC,0.21 E-score
4,ACATTACA,0.24 E-score
5,AGTGTCAG,-0.0514 E-score
6,CTATTGAG,0.168 E-score
7,GATAGACA,-0.0476 E-score
8,CCCGGGCA,-0.34 E-score
9,ACCCGGGG,-0.283 E-score
10,AATTAACT,0.281 E-score
11,GAATAGTA,0.285 E-score
12,TCAACCGA,-0.14 E-score
13,CAGCGGAC,0.00328 E-score
14,ATTTCGTC,-0.0446 E-score
15,AGATGTCG,-0.231 E-score
16,ACAATTCT,0.149 E-score
17,AATTTTGA,0.198 E-score
18,GACGATGC,-0.106 E-score
19,CCACGTAC,-0.0772 E-score
20,ATAAATAC,0.276 E-score
21,AAGTGTAA,0.235 E-score
22,ATACTTTG,0.219 E-score
23,CGAGATAA,0.0171 E-score
24,CTACTGTA,0.343 E-score
25,ACCATGCC,-0.248 E-score

row,Sequence,binding signal
1,AGTTATCA,0.253 E-score
2,GACTAATA,0.225 E-score
3,ACTGAACA,0.0437 E-score
4,CAACCTGG,-0.208 E-score
5,CAGTTTCC,-0.109 E-score
6,GGGGGGAC,-0.358 E-score
7,CAATAGTG,0.287 E-score
8,CCGGGACA,-0.126 E-score
9,CGAGGTAC,-0.0944 E-score
10,AAACATCC,0.118 E-score
11,ACCTCCTA,-0.019 E-score
12,AATAGCCG,-0.0965 E-score
13,ATACTTCG,0.18 E-score
14,CGGAGTAC,-0.00494 E-score
15,CTGTGGCC,-0.193 E-score
16,ACTACTGC,0.0824 E-score
17,GGTTGCTA,0.142 E-score
18,CGCGTATC,0.15 E-score
19,ATGAGTGA,0.0309 E-score
20,ATGTCGTA,0.203 E-score
21,ACCGTAGA,0.164 E-score
22,CCACAACC,-0.0954 E-score
23,CCGCTATA,0.145 E-score
24,AGCCAGTC,-0.219 E-score
25,CTATCCGC,0.0972 E-score

row,Sequence,binding signal
1,AAAAAAAT,0.119 E-score
2,CGATCGAA,0.257 E-score
3,AACTGACC,0.114 E-score
4,GTGAGCAA,0.00173 E-score
5,AGCTTGAT,0.00692 E-score
6,CATGCCTA,-0.0265 E-score
7,AGGTACCT,0.202 E-score
8,GAGTGTCC,-0.124 E-score
9,AGCCTGTA,-0.0814 E-score
10,CCATATGC,-0.00822 E-score
11,TGGAGAAA,0.254 E-score
12,CGCCGAAG,-0.282 E-score
13,TATGTCGA,0.132 E-score
14,CTGGGATA,0.0899 E-score
15,CCGTTACG,0.0216 E-score
16,ATTGCGGC,-0.0648 E-score
17,ACCGTAAT,0.226 E-score
18,CTTGGAAC,-0.0814 E-score
19,AAGGAATT,0.00323 E-score
20,AATGGGAC,-0.158 E-score
21,TCGGAAAA,0.0392 E-score
22,CAAACTTC,-0.0911 E-score
23,TCGTCCCA,-0.212 E-score
24,GCGACGCA,-0.00293 E-score
25,AGTATATC,0.221 E-score

row,Sequence,binding signal
1,GAGAAACA,-0.00971 E-score
2,AATTTCGT,0.244 E-score
3,AGTCCATC,-0.0975 E-score
4,CACGCGAA,-0.0277 E-score
5,AACGACAC,0.132 E-score
6,ATGCCCAA,-0.124 E-score
7,GACTTTAA,-0.0448 E-score
8,CTCCAATA,-0.0877 E-score
9,AATATCGC,-0.0495 E-score
10,ATGACGTA,0.0701 E-score
11,GTCAATAA,0.189 E-score
12,ATAACGTA,0.0662 E-score
13,GTCCTCCA,-0.327 E-score
14,GGTGAAGA,-0.0454 E-score
15,AGCCCCCG,-0.428 E-score
16,TAGCGTAA,0.144 E-score
17,AGGTTTCG,-0.0879 E-score
18,AGTCACTC,-0.0982 E-score
19,ACTAAGAG,0.0623 E-score
20,GACGACCA,-0.222 E-score
21,ACTATCTA,0.397 E-score
22,CCCAACGC,-0.383 E-score
